In PubChem BioAssay AID720708 (National Center for Advancing Translational Sciences (NCATS), 2013):
Hit rate of the full screen: of about 360,000 compounds, about 660 (0.18%) were called active. The inconclusive results got no clear call from the source; some entries with a clear call stand among them for comparison. Calls come from the whole dose curve; as a rule, active = well fitted inhibition curve with a large enough effect; inconclusive = small, poorly fitted or top-dose-only effect; inactive = no such curve, though single readings can be large or run the other way. Potencies of inconclusive entries are left out as doubtful fits.

Biological target: Rap guanine nucleotide exchange factor 4 (Homo sapiens) (UniProt Q8WZA2)
Assay: qHTS for Antagonist of cAMP-regulated guanine nucleotide exchange factor 2 (EPAC2): primary screen; note: nearly all actives have a fitted effect of over 45% in size
Settings: EPAC2 GEF exchange of Rap1B-BODIPY-GDP, fluorescence; activity, negative = inhibition: at 114 µM (top of the series) unless noted
% is set by controls: 0 for no effect and ±100 for the full control effect; potency is the fitted concentration of half-maximal effect; tags give direction and shape of the fitted curve.

Chain of UniProt Q8WZA2 (Q8WZA2 whole entry, looked up): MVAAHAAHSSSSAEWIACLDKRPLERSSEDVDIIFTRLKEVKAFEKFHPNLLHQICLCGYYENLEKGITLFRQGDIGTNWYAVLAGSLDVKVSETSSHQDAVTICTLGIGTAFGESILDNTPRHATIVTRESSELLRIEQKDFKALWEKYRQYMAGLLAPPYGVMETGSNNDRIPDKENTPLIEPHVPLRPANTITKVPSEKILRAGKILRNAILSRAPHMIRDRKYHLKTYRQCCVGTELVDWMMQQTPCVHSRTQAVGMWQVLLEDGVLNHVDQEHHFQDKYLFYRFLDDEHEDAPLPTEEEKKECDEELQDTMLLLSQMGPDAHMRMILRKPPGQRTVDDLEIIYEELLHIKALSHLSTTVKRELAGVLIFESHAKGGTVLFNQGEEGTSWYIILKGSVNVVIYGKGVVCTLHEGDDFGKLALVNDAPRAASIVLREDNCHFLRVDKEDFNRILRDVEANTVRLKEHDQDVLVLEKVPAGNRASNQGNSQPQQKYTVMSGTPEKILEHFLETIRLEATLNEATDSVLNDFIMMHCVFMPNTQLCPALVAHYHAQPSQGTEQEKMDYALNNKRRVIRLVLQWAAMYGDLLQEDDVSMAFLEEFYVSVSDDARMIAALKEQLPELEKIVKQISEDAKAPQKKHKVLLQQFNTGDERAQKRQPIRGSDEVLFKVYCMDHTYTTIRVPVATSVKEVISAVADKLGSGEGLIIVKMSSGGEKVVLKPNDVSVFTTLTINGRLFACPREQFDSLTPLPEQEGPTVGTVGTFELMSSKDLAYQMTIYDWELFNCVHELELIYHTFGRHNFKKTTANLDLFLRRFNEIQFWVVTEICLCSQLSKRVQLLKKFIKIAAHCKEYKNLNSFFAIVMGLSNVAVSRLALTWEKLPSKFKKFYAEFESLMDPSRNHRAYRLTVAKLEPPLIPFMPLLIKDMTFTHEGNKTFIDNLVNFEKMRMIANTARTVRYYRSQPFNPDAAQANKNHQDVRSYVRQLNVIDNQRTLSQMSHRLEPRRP

Row | SMILES | Potency | activity, negative = inhibition
1 | O=[N+]([O-])c1ncccc1OCc1ccc(Cl)c(Cl)c1 | inactive | –
2 | CCOc1ccc(CCNC(=O)c2ccc3c(=O)[nH]c4c(C(=O)NC(C)C)sc(=S)n4c3c2)cc1 | inconclusive [inhibitor, partial curve, poor fit] | –
3 | CO/N=C/c1ccc(Sc2ccccc2)c([N+](=O)[O-])c1 | inconclusive [inhibitor, single point] | –
4 | O=C1NC(=S)S/C1=C\c1cccc([N+](=O)[O-])c1 | active: 50.1 µM | –
5 | N#Cc1cccc(NC(=O)c2cc(C3CCCCN3C(=O)c3ccccn3)on2)c1 (stereo unspecified) | inactive | –
6 | Cc1ccc(N(C)S(=O)(=O)c2cccc(C(=O)N(C)Cc3cnn(-c4ccccc4)c3)c2)cc1 | inconclusive [inhibitor, single point] | –
7 | COc1ccc(C(CCN(Cc2ccc(OC)c(OC)c2)C(C)=O)C(C)C)cc1 (stereo unspecified) | inconclusive [inhibitor, partial curve] | –
8 | CCOC(=O)C1=C(C)Nc2nnnn2C1c1ccc(OC)c(Br)c1 (stereo unspecified) | inconclusive [inhibitor, partial curve] | –
9 | CN(Cc1cccc(Cl)c1Cl)CC(O)COc1ccccc1 (stereo unspecified) | inconclusive [inhibitor, partial curve] | –
10 | Cc1ccnc(NS(=O)(=O)c2ccc(NC(=O)Cc3ccc(Cl)cc3)cc2)n1 | inconclusive [inhibitor, partial curve] | –
11 | Clc1ccccc1-c1nnc2sc(CCc3ccccc3)nn12 | inactive | –
12 | Cc1cc(C)cc(-c2nnc(SCc3ccc(C(=O)O)cc3)o2)c1 | inconclusive [inhibitor, partial curve] | –
13 | Oc1c(Cl)cc(Cl)cc1C=Nc1cc(C(F)(F)F)ccc1N1CCc2ccccc2C1 | inconclusive [inhibitor, full curve] | –
14 | CN1C2C=CC(=O)C1C1C(=O)N(c3ccccc3)C(=O)C12 (stereo unspecified) | inactive | –
15 | CCOC(=O)c1c(CSc2ccccc2)oc2ccc(O)cc12 | inconclusive [inhibitor, single point] | –
16 | Cc1ccccc1SCC(=O)N1CCN(c2ccc(C(F)(F)F)cn2)CC1 | inconclusive [inhibitor, partial curve] | –
17 | CCCCn1c(NC(=O)c2ccccc2Cl)c(C#N)c2nc3ccccc3nc21 | inconclusive [inhibitor, partial curve, poor fit] | –
18 | Cc1ccc2nc(C3CCCCC3)c(Cc3cccc(F)c3)n2c1 | inconclusive [inhibitor, partial curve] | –
19 | CC(C)(C)NC(=O)NC(=O)CN1CCc2ccccc21 | inconclusive [inhibitor, partial curve] | –
20 | CN1OC[C@@H]2CN(C(=O)CCc3ccccc3)[C@H](c3cccc(-c4ccc(C#N)cc4)c3)C[C@@H]21 | inconclusive [inhibitor, partial curve] | –
21 | CC(C)c1ccc2c(c1)c(SC(C)(C)C)c(CC(C)(C)C(=O)O)n2Cc1ccc(Cl)cc1 | inconclusive [inhibitor, partial curve] | –
22 | CC(OC(=O)Cn1[nH]c(=O)c2ccccc2c1=O)C(=O)Nc1cccc(Cl)c1 (stereo unspecified) | inconclusive [inhibitor, partial curve, poor fit] | –

Row | SMILES | Potency | activity, negative = inhibition
23 | CCOP(=O)(OCC)c1nc(-c2ccc(Cl)cc2Cl)oc1N1CCCCC1 | inconclusive [inhibitor, full curve] | –
24 | COc1ccc(C2=CCCCCC2)cc1OC | inconclusive [inhibitor, partial curve] | –
25 | Cc1ccc(NC(=S)N/N=C/c2cccn2Cc2ccccc2F)cc1 | inconclusive [inhibitor, partial curve] | –
26 | CCOC(=O)C1=C(C)OC(N)=C(C#N)C1c1cc(SCC)oc1C (stereo unspecified) | inconclusive [inhibitor, partial curve] | –
27 | Cc1cc(Cl)ccc1OC(C)C(=O)Nc1ccc(C(=O)Nc2ccccc2C(=O)O)cc1 (stereo unspecified) | inconclusive [inhibitor, partial curve] | –
28 | COc1ccccc1Oc1ncnc2c1oc1ccccc12 | active: 79.4 µM | –
29 | CCO[C@@H]1OC(C(=O)NCc2ccccc2)=C[C@H](c2ccc(C(F)(F)F)cc2)[C@H]1CCCO | inconclusive [inhibitor, partial curve] | –
30 | CCOC(=O)C1=CCN(S(=O)(=O)c2ccc(F)cc2)C1c1cccc(C)c1 (stereo unspecified) | inconclusive [inhibitor, partial curve] | –
31 | N#Cc1c(-c2ccccc2)cc(-c2ccc3c(c2)OCO3)[nH]c1=O | inactive | –
32 | Cc1ccc(-n2cc(CN(C)Cc3nccn3C)c(-c3ccc(F)cc3)n2)cc1 | inconclusive [inhibitor, single point] | –
33 | c1ccc(-c2nnsc2-c2ccccc2)cc1 | inconclusive [inhibitor, partial curve] | –
34 | COc1cc(/C=N/NS(=O)(=O)c2ccc3ccccc3c2)ccc1OCc1ccc(C(=O)O)cc1 | inconclusive [inhibitor, partial curve] | –
35 | CCCNC(=O)c1ccc2c(=O)c(O)c(-c3ccsc3)[nH]c2c1 | inactive | –
36 | COCCOC(=O)N1CCCCC1c1cc(C(=O)NCc2ccc(Cl)c(Cl)c2)no1 (stereo unspecified) | inactive | –
37 | O=c1c2sccc2nc(SCc2cc(=O)n3cc(Br)ccc3n2)n1Cc1ccccn1 | inconclusive [inhibitor, single point] | –
38 | O=C(CCSc1ccccc1)N1CCN(c2ccccc2F)CC1 | inconclusive [inhibitor, partial curve] | –
39 | COc1ccc(C(=O)CCc2ccccc2O)c(OC)c1 | inconclusive [inhibitor, partial curve] | –
40 | CN1CCN(c2nc(-c3cccs3)cs2)CC1 | inactive | –
41 | CCCOc1ccc(/C=C2/C(=O)ON=C2C)cc1Cl | inconclusive [inhibitor, partial curve] | –
42 | CCN(C(=O)COC(=O)c1ccco1)c1cccc2ccccc12 | inconclusive [inhibitor, partial curve, poor fit] | –
43 | COCCNC(=O)C1CCCN(C(=O)c2cc(C)n(C(C)(C)C)n2)CC1 (stereo unspecified) | inactive | –
44 | c1cn2c(NC3CCCCC3)c(-c3ccc(SC4CCCCC4)cc3)nc2cn1 | inconclusive [inhibitor, partial curve] | –

Row | SMILES | Potency | activity, negative = inhibition
45 | C/C=C(/C)C(=O)OC1c2c(ccc3ccc(=O)oc23)OC(C)(C)C1OC(=O)/C(C)=C\C (stereo unspecified) | inconclusive [inhibitor, full curve, poor fit] | –
46 | COc1ccc(S(=O)(=O)Nc2ccccc2SC)cc1C | inconclusive [inhibitor, partial curve] | –
47 | CCOc1cc(/C=C2\C(=O)N(c3cccc(C(F)(F)F)c3)C(=O)c3ccccc32)ccc1O | inactive | –
48 | COc1cccc(C(C)(O)c2nc(-c3csc4ccccc34)cs2)c1 (stereo unspecified) | inconclusive [inhibitor, single point] | –
49 | O=C1CC(c2cccs2)c2ccc3ccccc3c2N1 (stereo unspecified) | inconclusive [inhibitor, full curve, poor fit] | –
50 | O=C(O)c1cccc2cccc(-c3c4ccc(=O)c(O)c-4oc4c(O)c(O)ccc34)c12 | inactive | –
51 | Cc1ccc(S(=O)(=O)Nc2ccccc2/C=N/c2nc3ccccc3n2C)cc1 | inactive | –
52 | CCOc1ccc(CN(C)CC(=O)NCc2ccccc2Cl)cc1 | inactive | –
53 | C[C@H](CO)N1C[C@H](C)[C@@H](CN(C)C(=O)Nc2ccc(C(F)(F)F)cc2)Oc2ccc(NS(=O)(=O)c3cccs3)cc2C1=O | inconclusive [inhibitor, full curve, poor fit] | –
54 | CCCOc1ccc(F)cc1-c1cc(C(=O)NCc2ccccc2)[nH]n1 | – | inconclusive: 2.55% [inhibitor]
55 | Cc1cccc(NC(=O)Cn2c(O)c(N=NC(=O)c3ccncc3)c3ccccc32)c1 | inconclusive [inhibitor, partial curve] | –
56 | Cc1ccc(S(=O)(=O)N2CCC(=O)CC2c2ccccc2)cc1 (stereo unspecified) | inconclusive [inhibitor, single point] | –
57 | CC1(C)Cc2ccccc2-c2nc3n(c(=O)c21)CCCS3 | inconclusive [inhibitor, partial curve] | –
58 | COc1ccc(-c2ccc(=O)n(Cc3cccc(Cl)c3)n2)cc1 | inconclusive [inhibitor, partial curve] | –
59 | COC(=O)C(C(=O)OC)c1ccccc1NS(=O)(=O)c1c(C)cc(C)cc1C | inactive | –
60 | CCSc1nc2ccccc2c(=O)n1Cc1ccc(F)cc1 | inconclusive [inhibitor, partial curve] | –
61 | COc1ccccc1CNC(=O)COC(=O)c1ccccc1-c1ccccc1 | inconclusive [inhibitor, partial curve] | –
62 | Cc1nc2c(OCc3ccc(C(F)(F)F)cc3)cccn2c1N(C)Cc1cccs1 | inconclusive [inhibitor, single point] | –
63 | O=S(=O)(Nc1nnc(C(F)(F)F)s1)c1ccc(Cl)cc1 | inconclusive [inhibitor, partial curve] | –
64 | CCOc1ccccc1-c1ccc2nccn2c1 | inconclusive [inhibitor, partial curve] | –
65 | COC(CN(C)C(=O)c1cn(C)c2ccc(S(=O)(=O)N(C)C3CCCCC3)cc2c1=O)OC | inconclusive [inhibitor, single point] | –
66 | C[C@H]1CN([C@@H](C)CO)S(=O)(=O)c2ccc(Br)cc2O[C@@H]1CN(C)Cc1ccccc1 | inconclusive [inhibitor, full curve] | –
